# Variants at the floor of the assay are shown more often than the library holds them.
# B1: TPR 5TU (parent)
# chain: GGAUCUUCUCGAUCUAACAAAAAAGACAAAUCUGCCACAAAGCUUGAGAGCAUCUUCGGAUGCAGAGGCGGCAGCCUUCGGUGGCGCGAUAGCGCCAACGUUCUCAACUAUGACACGCAAAACGCGUGCUCCGUUGAAUGGAGUUUAUCAUG
# Variants of: B1
# Assay: polymerase ribozyme fitness, log enrichment relative to wild type (log ratio); higher = more active; in vitro selection for triplet polymerase activity
# Summary of the method: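 Fitness is a logarithmic measure of how a genotype enriched relative to the wild type, with replicate averages weighted by inverse variance. The logarithm uses base 2, and enrichment came from Illumina sequencing of input and output libraries. Those libraries were PCR-built, transcribed mutants of each subunit of a heterodimeric triplet polymerase ribozyme, passed through one triplicate in vitro selection round that included frozen incubation at −7 °C, gel excision of extended constructs and streptavidin-bead capture. Genotypes were kept only if they had ≥10 input reads and ≥1 read per output.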
row,Variant,polymerase ribozyme fitness (log ratio)
1,A29C A64G C72G G88A G133C U151C,≤ -4.2
2,A29U C87U A122U U145C,-3.85
3,A29G G50A G80U A91C U134A U146C,≤ -4.2
4,A29U U44A G48A G84A,≤ -4.2
5,A29G C93G A115U C116G C149G,≤ -4.2
6,A29C C54A C87U A113U A120U G124U U148C,≤ -4.2
7,A30C C79A G80C C96U C118U,≤ -4.2
8,A29U U44C U45A C57A A64G C76A C95A A150C,≤ -4.2
9,A30C U44G A47C U61G A97U,≤ -4.2
10,A29U U44A A49C C57U G88U,≤ -4.2
11,A29G G88U G126A,≤ -4.2
12,A29C A66C C76U G94A A107U C118G,≤ -4.2
13,A29U A49U U78G G83C C99U G112A,≤ -4.2
14,A29U U109G C149G,≤ -4.2
15,A29C C54U C85G G86A C95G U139G C149G,≤ -4.2
16,A29G C51A U78G A91G U101G C132U A142U U145C,≤ -4.2
17,A29U G58C A60G G92C G117A,≤ -4.2
18,A29C A89G C95G U139C G140A G141U A142C,≤ -4.2
19,A30C C35U G50U G65U G94A U146G,≤ -4.2
20,A29U C38U G67U C95U C105G G117C A137G G140A A142U,≤ -4.2
21,A29U G46U G59A G70A A89U G117U U148A,≤ -4.2

row,Variant,polymerase ribozyme fitness (log ratio)
1,A30G A41U U135A A137U,≤ -4.2
2,A29U C32A G42U A64C C87G C103G,≤ -4.2
3,A29G U90G A122U A142U C149G,≤ -4.2
4,A29U U53A U56A A64U U77C A98G C103G U148C,≤ -4.2
5,A29U A41G A91U,≤ -4.2
6,A29U A107C,≤ -4.2
7,A29G G59C C76A C95G U102G G136A,≤ -4.2
8,A30C C85U C96G G124C G143U,≤ -4.2
9,A29C C32G U61G C79A A91U C125A,≤ -4.2
10,A29C U145C,≤ -4.2
11,A30C A142C U144C,≤ -4.2
12,A30C A66G C96U G140U A142C,≤ -4.2
13,A29C U33G A40U G80U G94U U102C G143A U151A,-3.89
14,A30C A66G U77G C95A,≤ -4.2
15,A29U G58C G86A G141U,≤ -4.2
16,A29U C43G G58C G94C C95U,≤ -4.2
17,A30C A64U G65A G70A G84U A91C C103U G136C C149G,≤ -4.2
18,A29U A40U A47C G58C G67U C72A C125A U130G G133U,≤ -4.2
19,A29U G50U A52C U101G U148A,≤ -4.2
20,A29U G70U,≤ -4.2
21,A29C C87G G117A,≤ -4.2

row,Variant,polymerase ribozyme fitness (log ratio)
1,A29G C93G,≤ -4.2
2,A29U C51G G83C A106C,≤ -4.2
3,A30C C95U,-4.11
4,A29C G48A A142U,≤ -4.2
5,A29U C51U U55A C57A U139A,≤ -4.2
6,A29U G81U G92C C116G G140A U148C,≤ -4.2
7,A29U G88C C132U,≤ -4.2
8,A29G G84A C99U A106C C116A U139C U151A,≤ -4.2
9,A29U C32U A122G,≤ -4.2
10,A29G G50U C57U C69U G94U C114A,≤ -4.2
11,A30C C43U A49C C85G C108G,≤ -4.2
12,A30C U56A C75G C96A,≤ -4.2
13,A29C U44G U55A G68A G71U G80A C93A A98U A138C,≤ -4.2
14,A29U C79G U130G A138C,≤ -4.2
15,A30G A40G U45G C79G A89C G94U U145A,≤ -4.2
16,A30C A47C A49C A60G G81U C95G A119U A150C,≤ -4.2
17,A30C U45A A52G G92A C114U G141C,≤ -4.2
18,A29G U56G G86U G141C G143U,≤ -4.2
19,A29G A30C G59C U90G C95G G133U,≤ -4.2
20,A29G C51U C96G,≤ -4.2
21,A29U C79G G88C A113U C116U U127A U146A A147C,≤ -4.2

row,Variant,polymerase ribozyme fitness (log ratio)
1,A30G A39U C63U A73G C96U C125U,≤ -4.2
2,A30C C36U C57G C76A C87U U145A,≤ -4.2
3,A30C G48A,≤ -4.2
4,A29G U33C G141A U145A,≤ -4.2
5,A29U A73G C93A G128U G140U,≤ -4.2
6,A29U A41U,≤ -4.2
7,A29G C38U U53G C85G A98U C108A G128U,-3.97
8,A29U U56A G58C G68U G86C C95G,≤ -4.2
9,A29U G58A C87U A98G C103A U111C G124A,≤ -4.2
10,A29U U61A A91C C96A G128C,≤ -4.2
11,A29G A39G G42C G48C G86A C87A A106G C116U A147G,≤ -4.2
12,A29G C76U G92A C123G G143U,≤ -4.2
13,A29C C35A,-3.91
14,A29U U56A A60G G81A C87A,≤ -4.2
15,A30C C32U C38G A49G C99G C125G,≤ -4.2
16,A29G C32A C38U U55A G86A U104G G141U C149U,≤ -4.2
17,A29G C96A,-3.46
18,A29U C96G U102G A115U A122U G136U,≤ -4.2
19,A29C G58C,-3.97
20,A29U A49G C54G G59U A91U C96A G117U A142U,≤ -4.2

# — the RNAGym collection of RNA variant scans (doi:10.1073/pnas.2313332121)
